{"source": "the supplement of paper PMC3334620", "note": "In all, about 33,000 sequences were measured (“E-score (-0.5 to 0.5)”: median about -0.053, highest 2% from about 0.37 on). The list shows a part of the results."}
{"target": "Hap1 (UniProt P0CE41)", "sequence (P0CE41 whole entry, the tested form may be a part)": "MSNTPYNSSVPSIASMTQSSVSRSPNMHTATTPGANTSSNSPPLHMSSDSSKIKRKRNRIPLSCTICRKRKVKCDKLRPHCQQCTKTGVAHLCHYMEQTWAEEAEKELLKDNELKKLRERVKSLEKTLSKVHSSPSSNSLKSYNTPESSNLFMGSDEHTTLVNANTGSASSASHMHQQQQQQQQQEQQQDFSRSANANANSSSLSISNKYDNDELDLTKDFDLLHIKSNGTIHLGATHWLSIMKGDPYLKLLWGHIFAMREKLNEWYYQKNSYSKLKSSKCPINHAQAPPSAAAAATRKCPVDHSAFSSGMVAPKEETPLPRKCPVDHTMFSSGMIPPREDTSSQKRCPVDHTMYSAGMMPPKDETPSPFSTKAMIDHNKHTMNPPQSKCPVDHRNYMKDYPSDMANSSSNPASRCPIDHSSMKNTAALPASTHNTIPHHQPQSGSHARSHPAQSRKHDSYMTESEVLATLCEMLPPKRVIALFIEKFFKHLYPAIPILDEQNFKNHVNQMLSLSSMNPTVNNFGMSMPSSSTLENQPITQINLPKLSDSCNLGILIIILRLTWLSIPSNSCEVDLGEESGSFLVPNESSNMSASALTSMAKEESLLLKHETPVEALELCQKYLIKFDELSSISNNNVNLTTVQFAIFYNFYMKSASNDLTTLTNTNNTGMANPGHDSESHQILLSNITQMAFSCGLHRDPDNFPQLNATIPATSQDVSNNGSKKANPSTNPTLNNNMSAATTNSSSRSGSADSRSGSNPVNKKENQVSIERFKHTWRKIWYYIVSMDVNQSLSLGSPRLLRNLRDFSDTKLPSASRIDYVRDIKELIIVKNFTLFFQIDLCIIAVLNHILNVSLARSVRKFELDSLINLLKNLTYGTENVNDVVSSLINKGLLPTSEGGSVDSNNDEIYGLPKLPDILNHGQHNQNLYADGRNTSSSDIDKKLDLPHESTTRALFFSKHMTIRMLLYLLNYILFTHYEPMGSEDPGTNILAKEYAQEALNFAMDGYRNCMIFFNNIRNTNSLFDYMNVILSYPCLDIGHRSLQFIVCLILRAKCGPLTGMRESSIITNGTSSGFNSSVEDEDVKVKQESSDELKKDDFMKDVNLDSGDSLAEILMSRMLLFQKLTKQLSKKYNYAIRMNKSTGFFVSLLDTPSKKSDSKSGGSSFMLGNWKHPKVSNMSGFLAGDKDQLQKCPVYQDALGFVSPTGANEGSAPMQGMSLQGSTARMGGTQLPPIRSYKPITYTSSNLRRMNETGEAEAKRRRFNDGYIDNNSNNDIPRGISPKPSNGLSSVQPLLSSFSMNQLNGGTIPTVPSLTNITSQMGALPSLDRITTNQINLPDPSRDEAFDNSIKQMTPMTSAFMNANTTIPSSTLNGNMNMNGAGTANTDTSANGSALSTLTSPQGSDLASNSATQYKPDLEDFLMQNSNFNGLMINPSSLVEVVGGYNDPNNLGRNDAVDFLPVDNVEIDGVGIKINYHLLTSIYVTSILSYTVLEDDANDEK", "assay": "PBM E-score (8-mer binding enrichment) (E-score (-0.5 to 0.5)); higher = stronger / more preferred TF binding; most listed sequences are background and not binding sites", "conditions": "protein concentration: 200 nM; construct: GST-DNA-binding domain", "outline": "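Masliner-normalised scans of fluorescent anti-GST signal were the basis for scoring. That signal came from GST-tagged yeast transcription factors applied at about 100-200 nM to double-stranded universal all-10-mer Agilent arrays on fresh or once-stripped slides. Each ungapped eight-base word, pooled with its reverse complement, received an E-score from the Universal PBM Analysis Suite.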"}
{"sequence": "CCTGAACA", "PBM E-score": -0.0369}
{"sequence": "CCTAAGTC", "PBM E-score": -0.00871}
{"sequence": "AGTGAAAT", "PBM E-score": -0.18}
{"sequence": "CTGGCCTC", "PBM E-score": -0.00516}
{"sequence": "CCTCTAAG", "PBM E-score": -0.337}
{"sequence": "GGGCGTAA", "PBM E-score": 0.217}
{"sequence": "ACTTCACC", "PBM E-score": 0.136}
{"sequence": "AGCTTATA", "PBM E-score": -0.0398}
{"sequence": "CCCTGAGC", "PBM E-score": -0.0326}
{"sequence": "CATTGGAA", "PBM E-score": -0.104}
{"sequence": "ACCATCAG", "PBM E-score": -0.159}
{"sequence": "CGGGGGAC", "PBM E-score": 0.191}
{"sequence": "CAAAGTAG", "PBM E-score": -0.151}
{"sequence": "AATCTCCA", "PBM E-score": -0.0624}
{"sequence": "ACTATAGG", "PBM E-score": -0.22}
{"sequence": "ATCGGGTG", "PBM E-score": 0.37}
{"sequence": "CTGCCCCA", "PBM E-score": -0.186}
{"sequence": "ATACACGC", "PBM E-score": 0.0491}
{"sequence": "GCTATGAA", "PBM E-score": -0.124}
{"sequence": "GAAACTAA", "PBM E-score": -0.0577}
{"sequence": "AACACAAT", "PBM E-score": -0.263}
{"sequence": "ATTGTACG", "PBM E-score": -0.164}
{"sequence": "GTCCAGTA", "PBM E-score": -0.0168}
{"sequence": "AATGTGCT", "PBM E-score": -0.0885}
{"sequence": "TCCGGTCA", "PBM E-score": 0.385}
{"sequence": "ACGCTTTC", "PBM E-score": -0.176}
{"sequence": "CTGGCATC", "PBM E-score": -0.354}
{"sequence": "AGGGCCTA", "PBM E-score": 0.0252}
{"sequence": "AATCCGCA", "PBM E-score": 0.247}
{"sequence": "CTGGCGTA", "PBM E-score": -0.261}
{"sequence": "CTATGGTC", "PBM E-score": -0.183}
{"sequence": "AAGGTATC", "PBM E-score": 0.0637}
{"sequence": "AGCTTTCA", "PBM E-score": -0.172}
{"sequence": "ACCCCGAT", "PBM E-score": 0.416}
{"sequence": "AATGGCCA", "PBM E-score": -0.0907}
{"sequence": "AGCGTCGA", "PBM E-score": -0.064}
{"sequence": "CAAACAGC", "PBM E-score": -0.117}
{"sequence": "CGACGGTC", "PBM E-score": 0.182}
{"sequence": "GGTTGGAC", "PBM E-score": -0.119}
{"sequence": "AAGTGCTA", "PBM E-score": -0.231}
{"sequence": "TGGCTACA", "PBM E-score": -0.267}
{"sequence": "CAAACAAA", "PBM E-score": -0.214}
{"sequence": "AAGGGAGA", "PBM E-score": -0.226}
{"sequence": "CACCTTGC", "PBM E-score": -0.136}
{"sequence": "GCTGCATA", "PBM E-score": -0.161}
{"sequence": "GATCATGA", "PBM E-score": -0.121}
{"sequence": "CTCATCAC", "PBM E-score": -0.221}
{"sequence": "AAGGGCCA", "PBM E-score": -0.224}
{"sequence": "CGCGCAAA", "PBM E-score": 0.126}
{"sequence": "TCCACTAA", "PBM E-score": 0.141}
{"sequence": "ACTCCTAA", "PBM E-score": -0.0276}
{"sequence": "ACTGCGTA", "PBM E-score": -0.223}
{"sequence": "ATAACATA", "PBM E-score": 0.0323}
{"sequence": "CGCCCGAG", "PBM E-score": 0.396}
{"sequence": "CTGGGTAA", "PBM E-score": -0.22}
{"sequence": "ATTGACCG", "PBM E-score": 0.226}
{"sequence": "CCCAGATA", "PBM E-score": -0.0133}
{"sequence": "ATCTTATA", "PBM E-score": -0.0548}
{"sequence": "ACCATTCA", "PBM E-score": -0.202}
{"sequence": "ACAGCCGC", "PBM E-score": 0.0417}
{"sequence": "CAACGCGG", "PBM E-score": 0.214}
{"sequence": "ATAGAGTA", "PBM E-score": -0.148}
{"sequence": "TCGACACA", "PBM E-score": -0.246}
{"sequence": "GGTGCGAA", "PBM E-score": 0.0879}
{"sequence": "ACAAGCCG", "PBM E-score": 0.104}
{"sequence": "GAACACGA", "PBM E-score": -0.0354}
{"sequence": "GGTTCAAC", "PBM E-score": 0.0371}
{"sequence": "AAGATAGT", "PBM E-score": 0.0499}
{"sequence": "GGGGCGTA", "PBM E-score": 0.00742}
{"sequence": "CCGGCTGA", "PBM E-score": 0.314}
{"sequence": "CACTACCG", "PBM E-score": -0.00174}
{"sequence": "ACTTTGTC", "PBM E-score": -0.0965}
{"sequence": "CCAGCTCA", "PBM E-score": -0.211}
{"sequence": "CCAAGCCA", "PBM E-score": -0.215}
{"sequence": "AAGAAAAG", "PBM E-score": -0.0558}
{"sequence": "TCGTACAA", "PBM E-score": -0.21}
{"sequence": "CACTACTG", "PBM E-score": -0.229}
{"sequence": "GAAGGCCA", "PBM E-score": -0.219}
{"sequence": "AATAACAA", "PBM E-score": -0.162}
{"sequence": "ATAAAGAA", "PBM E-score": -0.101}
{"sequence": "TAGTCATA", "PBM E-score": -0.0485}
{"sequence": "GGAAGACA", "PBM E-score": -0.107}
{"sequence": "AATACCAT", "PBM E-score": -0.0062}
{"sequence": "AAAAGGTA", "PBM E-score": -0.109}
{"sequence": "ACTCCGAA", "PBM E-score": 0.397}
{"sequence": "ACTATTAG", "PBM E-score": 0.00767}
{"sequence": "CATGTAAA", "PBM E-score": -0.186}
{"sequence": "GATAAAAC", "PBM E-score": 0.249}
{"sequence": "CCGAGTCA", "PBM E-score": 0.191}
{"sequence": "TACCCGGA", "PBM E-score": 0.38}
{"sequence": "CCAATGGC", "PBM E-score": -0.142}
{"sequence": "AGTCAGCC", "PBM E-score": -0.13}
{"sequence": "CACTAGGC", "PBM E-score": 0.015}
{"sequence": "AGGAGTGG", "PBM E-score": -0.174}
{"sequence": "CACCAAAA", "PBM E-score": -0.135}
{"sequence": "ACTACGGA", "PBM E-score": 0.238}
{"sequence": "AACACTGC", "PBM E-score": -0.0932}
{"sequence": "ATTCAAGC", "PBM E-score": 0.0416}
{"sequence": "TCTGGTCA", "PBM E-score": -0.224}
{"sequence": "CAATCATA", "PBM E-score": 0.0273}
{"sequence": "TAAGGGCA", "PBM E-score": 0.086}
{"sequence": "ACCAGGGC", "PBM E-score": -0.213}
{"sequence": "ATCGGTAG", "PBM E-score": 0.205}
{"sequence": "GAGACCGC", "PBM E-score": 0.0393}
{"sequence": "CGCTTGTC", "PBM E-score": 0.0215}
{"sequence": "GTGCTGTA", "PBM E-score": 0.028}
{"sequence": "CATGAATC", "PBM E-score": -0.025}
{"sequence": "AATCGTAA", "PBM E-score": 0.0178}
{"sequence": "CCAGCATC", "PBM E-score": -0.0468}
{"sequence": "CTACCCCA", "PBM E-score": -0.0337}
{"sequence": "CTGATCTA", "PBM E-score": -0.144}
{"sequence": "AGCAGCGG", "PBM E-score": 0.178}
{"sequence": "ACCGCTCT", "PBM E-score": -0.0532}
{"sequence": "ATGGCTCC", "PBM E-score": -0.0376}
{"sequence": "CCCGGTCG", "PBM E-score": 0.336}
{"sequence": "AGCTAGAA", "PBM E-score": -0.229}
{"sequence": "AGCTGAGA", "PBM E-score": -0.143}
{"sequence": "GGACGACC", "PBM E-score": 0.0942}
{"sequence": "CAGCAACG", "PBM E-score": 0.0492}
{"sequence": "AAACGTTC", "PBM E-score": -0.288}
{"sequence": "AAATTGCC", "PBM E-score": 0.118}
{"sequence": "GAGGCTCC", "PBM E-score": 0.0204}
{"sequence": "TAAAGTTA", "PBM E-score": -0.0896}
{"sequence": "CCGCGACC", "PBM E-score": 0.17}
{"sequence": "ATAGTTTG", "PBM E-score": -0.13}
{"sequence": "AAGTTCCA", "PBM E-score": -0.0472}
{"sequence": "CAAGGGCC", "PBM E-score": -0.0829}
{"sequence": "AGCCACGC", "PBM E-score": -0.249}
{"sequence": "TCCCCCCA", "PBM E-score": -0.287}
{"sequence": "CAAATGAA", "PBM E-score": -0.0465}
{"sequence": "GCCTTGAA", "PBM E-score": -0.261}
{"sequence": "AATCCTAG", "PBM E-score": -0.0377}
{"sequence": "ATGCGATA", "PBM E-score": 0.185}
{"sequence": "GCGGTTTA", "PBM E-score": 0.0605}
{"sequence": "ATGCGAGG", "PBM E-score": -0.117}
{"sequence": "CCCGCAGA", "PBM E-score": 0.146}
{"sequence": "AAAACCCC", "PBM E-score": 0.187}
{"sequence": "TCTACACA", "PBM E-score": -0.223}
{"sequence": "GCGAACCA", "PBM E-score": 0.0323}
{"sequence": "CCACGCAG", "PBM E-score": -0.17}
{"sequence": "ATGAAAGG", "PBM E-score": -0.0624}
{"sequence": "AATTATAA", "PBM E-score": 0.0705}
{"sequence": "TACCTTGA", "PBM E-score": -0.0879}
{"sequence": "TAAGAAGA", "PBM E-score": 0.135}
{"sequence": "ATACCGAT", "PBM E-score": 0.288}
{"sequence": "AAAGATGC", "PBM E-score": -0.325}
{"sequence": "ACCATACT", "PBM E-score": -0.111}
{"sequence": "CGACTCCC", "PBM E-score": -0.0668}
{"sequence": "CTAATAGC", "PBM E-score": 0.0235}
{"sequence": "ATGTCAAG", "PBM E-score": -0.259}
{"sequence": "AAATAGGC", "PBM E-score": 0.169}
{"sequence": "AGTATGGG", "PBM E-score": -0.239}
{"sequence": "GAAGACCC", "PBM E-score": 0.027}
{"sequence": "TAAATGGA", "PBM E-score": -0.177}
{"sequence": "CCCAAATA", "PBM E-score": -0.0486}
{"sequence": "GAGGCGCA", "PBM E-score": 0.0393}
{"sequence": "AAGTGCGC", "PBM E-score": 0.0992}
{"sequence": "GTATAAAC", "PBM E-score": 0.0429}
{"sequence": "GGAGCCTA", "PBM E-score": 0.184}
{"sequence": "CATAAGAA", "PBM E-score": -0.0413}
{"sequence": "CGAGCTAC", "PBM E-score": 0.0494}
{"sequence": "TACGGTCA", "PBM E-score": 0.181}
{"sequence": "AGGTTGCG", "PBM E-score": -0.192}
{"sequence": "ACCGTTGC", "PBM E-score": 0.0924}
{"sequence": "TCGCGGCA", "PBM E-score": 0.213}
{"sequence": "CCTACGGC", "PBM E-score": 0.103}
{"sequence": "CACGACTG", "PBM E-score": -0.209}
{"sequence": "ATGCGATC", "PBM E-score": 0.0509}
{"sequence": "CATTAATC", "PBM E-score": -0.0216}
{"sequence": "AGGACCAT", "PBM E-score": -0.149}
{"sequence": "GGAGGTCA", "PBM E-score": 0.0182}
{"sequence": "GATCATAA", "PBM E-score": -0.0574}
